From PubChem BioAssay AID1240 (Sanford-Burnham Center for Chemical Genomics, 2008)
The whole screen tested about 50,000 compounds, of which about 800 (1.6%) showed an effect of 50% or more. Some of the results follow.

Target: Bcl-2-like protein 10 (Homo sapiens) (UniProt Q9HD36)
Assay: Phenotype converters, Bcl-B/TR3 peptide binding displacement, primary biochemical FP (AID 1240);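 further: 0% = Bcl-B with tracer peptide and DMSO and 100% = tracer peptide lacking Bcl-B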
Conditions: GST-Bcl-B / FITC-TR3 peptide fluorescence polarization; stronger effect = higher value; compound at 3.75 mg/L

Chain of UniProt Q9HD36 (Q9HD36 whole entry, looked up): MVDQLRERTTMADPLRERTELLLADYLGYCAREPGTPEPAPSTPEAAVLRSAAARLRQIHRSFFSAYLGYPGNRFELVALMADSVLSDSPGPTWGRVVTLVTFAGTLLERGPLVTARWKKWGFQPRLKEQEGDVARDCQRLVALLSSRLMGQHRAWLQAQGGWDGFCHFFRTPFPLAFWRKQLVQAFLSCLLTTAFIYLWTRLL

| Structure (SMILES) | displacement [%] |
| --- | --- |
| O=C(O)c1cccc(NC(=O)c2ccc(COc3ccc(Cl)cc3)cc2)c1 | -6.6 |
| O=C(O)c1sc2cccc(Cl)c2c1Cl | -8.3 |
| O=C(c1ccncc1)N1CCN(Cc2ccccc2C(F)(F)F)CC1 | -1.1 |
| COc1ccc(CCC(=O)Nc2sc3c(c2C(N)=O)CCCCC3)cc1 | 16.3 |
| O=C1C2C3C=CC(CC3)C2C(=O)N1/N=C/c1cc([N+](=O)[O-])cc(Br)c1O (centres undefined) | 7.3 |
| COc1ccc(N2C(=O)/C(=C/c3cc(Br)c(OC)c(OC)c3)C(=O)NC2=S)cc1 | -1.9 |
| COc1ccc(/C(N)=N/OC(=O)COc2ccc(C)cc2C)cc1 | -2.1 |
| COc1ccc(N(CC(=O)Nc2ccc3ccccc3c2)S(=O)(=O)c2ccc(C)cc2)cc1 | 3.5 |
| O=C(Nc1nc(-c2cccc3ccccc23)cs1)c1cccs1 | -1.5 |
| COc1cc(C2/C(=C(/O)c3ccccc3)C(=O)C(=O)N2c2cccc(C(F)(F)F)c2)ccc1O (centres undefined) | 3.8 |
| COc1ccc(S(=O)(=O)N2CCN(C(=O)c3ccco3)CC2)cc1 | 12.3 |
| O=C(O)/C(=C\c1ccccc1)NC(=O)c1ccccc1I | 1.7 |
| O=C(CC(=O)N/N=C/c1c(Cl)cccc1Cl)NCc1cccnc1 | -0.6 |
| CCOC(=O)c1nc2ccccc2[nH]c1=O | 14.3 |
| Cc1onc(-c2ccccc2Cl)c1C(=O)Nc1cccc(C(=O)O)c1 | -11.7 |
| COc1cc2ccccc2cc1C(=O)Nc1cccc(S(N)(=O)=O)c1 | -3.5 |
| CS(=O)(=O)N(CC(=O)NCCNC(=O)CN(c1ccc(Cl)cc1)S(C)(=O)=O)c1ccc(Cl)cc1 | 11.6 |
| Cc1cc(N/C=C/C(=O)c2ccccc2)ccc1Br | -6.8 |
| CN(C)CCN1C(=O)C(=O)/C(=C(/O)c2ccccc2)C1c1cccc([N+](=O)[O-])c1 (centres undefined) | -11.2 |
| COc1ccc(Oc2c(C(F)(F)F)oc3cc(O)ccc3c2=O)cc1 | 8.5 |
| CCOc1ccc(N2C(=O)NC(=O)/C(=C\c3cc(Br)ccc3OC)C2=O)cc1 | 3.9 |
| C=CCN1C(=O)/C(=C\c2cc(Cl)c(O)c(Cl)c2)C(=O)NC1=S | -15.5 |

| Structure (SMILES) | displacement [%] |
| --- | --- |
| CCOc1ccc(/C=C2\C(=O)NC(=O)N(c3ccc(Cl)cc3)C2=O)c(OCC)c1 | -11 |
| COc1ccc(/C(N)=N/OC(=O)COc2ccc(C(C)(C)C)cc2)cc1 | -3.1 |
| O=C(COC(=O)C1CC(=O)N(c2ccc(Cl)cc2)C1)c1ccccc1 (centres undefined) | 9.1 |
| O=C(c1ccc([N+](=O)[O-])cc1)N1CCN(CC2CC3C=CC2C3)CC1 (centres undefined) | -6.8 |
| c1ccc2cc(CN3CCN(Cc4ccncc4)CC3)ccc2c1 | -19.4 |
| Cn1ccnc1/C=C(/OC(=O)c1ccc(Cl)cc1)c1ccc(Cl)cc1 | 22 |
| CC1(C)OC2OC(C(=O)Nc3ccccc3)C3OC(C)(C)OC3C2O1 (centres undefined) | 10 |
| COc1ccc(/C=C2\C(=O)NC(=O)N(c3ccc(Br)cc3)C2=O)c(C)c1 | -11.3 |
| CCCC1=NN2C(=N)/C(=C/c3cc(OC)ccc3OC)C(=O)N=C2S1 | -0.5 |
| O=[N+]([O-])c1cccc(S(=O)(=O)Nc2ccc3c(c2)OCO3)c1 | 3.4 |
| Cc1nc2ccccn2c(=O)c1[N+](=O)[O-] | 17.1 |
| Cc1cc(C)n2c(SCc3ccc(Cl)cc3Cl)nnc2n1 | -10 |
| O=C(Oc1ccc([N+](=O)[O-])cc1)c1cc(S(=O)(=O)N2CCOCC2)ccc1Cl | -2.8 |
| O=C(O)CCSc1nc2ccccc2c(=O)[nH]1 | 14.4 |
| O=C1C2C3C=CC(O3)C2C(=O)N1Cc1ccccc1 (centres undefined) | 0.5 |
| O=C(O)CCC(=O)Nc1ccc(F)cc1 | -7.3 |
| Cc1ccc2oc(-c3ccc(C)c(NC(=O)c4ccc(Br)o4)c3)nc2c1 | -4.5 |
| COc1cccc(N2C(=O)/C(=C/c3ccc(C)o3)SC2=S)c1 | 39.6 |
| O=C1N/C(=C/c2ccccc2)C(O)=C1C=NCc1ccccc1 | 2 |
| CC(C)C(=O)Nc1ccc(Cl)c(-c2nc3cc(Cl)ccc3o2)c1 | -36.4 |
| O=C(Nc1ccncc1)c1ccc(C(=O)Nc2ccncc2)cc1 | 16.1 |
| NC(=O)c1ccc(NC(=O)c2ccc(Cl)c(Cl)c2)cc1 | -0.4 |

| Structure (SMILES) | displacement [%] |
| --- | --- |
| Cc1cc(=O)c2c(C)nc(-c3ccccc3)nc2[nH]1 | 31.5 |
| O=C(Nc1ccc(N2CCOCC2)cc1)c1ccco1 | 0.5 |
| CC(C)COc1ccc2[nH]c3c(c2c1)CCC/C3=N\N | 15.9 |
| CN1CCN(NC(=S)Nc2ccc([N+](=O)[O-])cc2)CC1 | -6.5 |
| O=[N+]([O-])c1ccc(Cl)c(-n2ncnc2-c2cccnc2)c1 | -1.9 |
| CCCC1=NN2C(=N)/C(=C/c3ccc(OCc4ccccc4Cl)cc3)C(=O)N=C2S1 | -12.7 |
| COc1cc(C(=O)NC(NC(=S)Nc2cccc3ccccc23)C(Cl)(Cl)Cl)cc(OC)c1OC (centres undefined) | -6.4 |
| FC(F)(F)c1cc(-c2ccccc2)n[nH]1 | 17.1 |
| O=C(c1ccc(Cl)cc1)N1CCN(c2ccc(Cl)cc2[N+](=O)[O-])CC1 | -0.7 |
| COc1cc2c(cc1NC(=O)Cc1ccc(Cl)cc1)oc1ccccc12 | -4.6 |
| O=[N+]([O-])c1ccccc1C=Nc1cc2c(cc1Br)OCCO2 | -4.8 |
| O=C(Cc1ccc(Br)cc1)Nc1nc2ccccc2s1 | 7.1 |
| CC1=C(C(=O)Nc2ccc(C)cc2)C(c2ccccc2F)NC(=S)N1 (centres undefined) | -9.3 |
| COc1ccc(N(CC(=O)Nc2ccc(Cl)cc2)S(=O)(=O)c2ccc(C)cc2)cc1 | 6.6 |
| CC1=NN(C(=S)c2ccccc2)C(C)(O)C1 (centres undefined) | 16.2 |
| CCOc1cc(C2C3=C(CC(C)(C)CC3=O)NC3=C2C(=O)c2ccccc23)ccc1O (centres undefined) | -0.8 |
| N#CCSc1nc(-c2ccccc2)c(-c2ccccc2)o1 | 5.9 |
| CCOc1ccc(NC(=O)C(C)C)c([N+](=O)[O-])c1 | -1.9 |
| CCCSc1nnc(NC(=O)/C=C/c2ccccc2)s1 | 9.8 |
| Cc1cc(=O)[nH]c(N/N=C/c2cc([N+](=O)[O-])ccc2O)n1 | -18 |
| CCSc1nnc(-c2ccc(Cl)cc2)c2ccccc12 | -11.5 |
| CC1C(c2ccccc2)NC(c2ccccc2)C(C)C1(O)C#Cc1ccccc1 (centres undefined) | -10 |

| Structure (SMILES) | displacement [%] |
| --- | --- |
| O=C1NC(=O)N(c2ccc(F)cc2)C(=O)/C1=C/c1cc(Cl)c(O)c(Cl)c1 | -15.6 |
| COC(=O)C1=C(C)N=C2SCC(=O)N2C1c1ccccc1 (centres undefined) | -102 |
| CCOC(=O)c1c(N2CCNCC2)c2ccccc2[nH]c1=O | -7.3 |
| O=C(O)CCNC(=O)/C(=C\c1ccccc1)NC(=O)c1ccccc1 | 0.2 |
| CCOC(=O)C1=C(C)N=c2s/c(=C\c3cn(C)c4ccccc34)c(=O)n2C1c1ccc(OC)c(OC)c1 (centres undefined) | 29.1 |
| Cc1ccc(C(C)NC(=O)Cc2ccccc2)cc1 (centres undefined) | 13.2 |
| CCOC(=O)c1c(N2C(=O)CC(Sc3nc4ccccc4s3)C2=O)sc2c1CCCC2 (centres undefined) | -8.2 |
| COC(=O)c1ccc(C(=O)Nc2cc(Cl)ccc2Cl)cc1NC(=O)c1cccs1 | -8.4 |
| CCOC(=O)Nc1ccc(C(C)CC)cc1 (centres undefined) | 2.4 |
| O=C(NCCOc1ccc(Cl)cc1)C(O)(c1ccc(Cl)cc1)c1ccc(Cl)cc1 | -7.2 |
| Cc1ccccc1OCCOc1ccccc1/C=N/n1cnnc1 | -10.1 |
| O=C(O)CNC(=O)c1sc2ccccc2c1Cl | 2.1 |
| Cc1onc(-c2c(Cl)cccc2Cl)c1C(=O)N1C(C)CCCC1C (centres undefined) | 11.4 |
| O=C(N/C(=C/c1cccc([N+](=O)[O-])c1)C(=O)N1CCCCC1)c1ccco1 | 8.1 |
| CC(=O)Nc1ccc(S(=O)(=O)N2c3ccc(C)cc3C(C)=CC2(C)C)cc1 | 3.7 |
| COc1ccc(S(=O)(=O)Nc2nccs2)cc1 | -12.9 |
| COc1cc2c(cc1OC)C(=O)NC1(CCCC1)C2 | -1 |
| CCOc1ccc(S(=O)(=O)N(CC(=O)Nc2ccccc2Br)c2ccc(C)cc2)cc1 | -0.4 |
| O=C(NC1CCCCC1)N1CCN(C(c2ccccc2)c2ccccc2)CC1 | 0.1 |
| CCOC(=O)c1[nH]c2c(C)cccc2c1CCN1C(=O)c2ccccc2C1=O | -12.1 |
| CCCC(=O)Nc1cccc(NC(=O)c2ccc(OC)c(Br)c2)c1 | -19 |
| CC(=O)c1cccc(NC(=O)c2ccc(OCc3ccccc3)cc2)c1 | -13.3 |

| Structure (SMILES) | displacement [%] |
| --- | --- |
| CC(C)(O)C#Cc1ccc(C(=O)NCc2ccco2)cc1 | -0.4 |
| O=C1/C(=C\c2ccc3c(c2)OCO3)SC(=S)N1C1CCS(=O)(=O)C1 (centres undefined) | 106 |
| CCC1S/C(=N/N=C(/C)c2ccc(Br)cc2)NC1=O (centres undefined) | -22.5 |
| COc1ccccc1CNC(=O)CC(C)=O | -2.7 |
| O=C(c1ccc([N+](=O)[O-])cc1)n1c2c(c3ccccc31)CCCC2 | 7.5 |
| O=C(CSc1nc2sc3c(c2c(=O)[nH]1)CCCC3)NCCO | 3.9 |
| COc1ccccc1OCCOc1ccc(/C=N/n2cnnc2)cc1 | 3.9 |
| Cc1cccc(C)c1NC(=O)/C=C/c1cccc([N+](=O)[O-])c1 | -2.9 |
| COc1c(Cl)cc(Cl)cc1/C=c1\sc2nc3c(C)c(C)ccc3n2c1=O | -6.7 |
| Cc1ccc(S(=O)(=O)NCCC(=O)Nc2ccc([N+](=O)[O-])cc2)cc1 | 9.1 |
| Clc1ccc(/C=N/Nc2nc(N3CCOCC3)nc(N3CCOCC3)n2)cc1Cl | 5.1 |
| O=C(/C(=C\c1ccc(Cl)cc1)c1nc2ccccc2s1)c1ccccc1 | -43 |
| CC(C)(C)c1ccc(C(=O)NCCOc2ccccc2F)cc1 | -13.8 |
| Cc1cc(Br)ccc1NC(=O)c1cccc([N+](=O)[O-])c1C | -0.1 |
| COc1ccc(C2C(C(=O)c3cccs3)=C(O)C(=O)N2c2nncs2)cc1OC (centres undefined) | 84.6 |
| FC(F)(F)c1ccc(N/N=C/c2ccc3c(c2)OCO3)nc1 | 9.9 |
| Cc1cc(NS(=O)(=O)c2ccc(Nc3nc(-c4sc(N)nc4C)cs3)cc2)no1 | -1.9 |
| COc1ccc(-c2nc3cc(NC(=O)COc4ccc([N+](=O)[O-])cc4)ccc3o2)cc1Br | -2.2 |
| N#Cc1c(NC(=O)c2cnccn2)sc2c1CCCCCC2 | 6.1 |
| COc1cc(/C=C(\C#N)C(=O)c2ccccc2)ccc1O | -23.9 |
| COc1cc(C2NC(=S)NC(C)=C2C(=O)Nc2ccc(Br)cc2)ccc1O (centres undefined) | 2.6 |
